# According to the supplement of paper PMC8728848:
# Some of the results follow.
# B1: TbCVNHOb (Tuber borchii) (protein)
# chain: MSFYASSEDVRTIEEGGRTWLVGRARRADGSWQDIKLDLDNIIGNRDGHLTWGEQNFTQSASDIRFNFEGGSNVPVLRAKLRNAAGGEQESDLNLGERLTNNNGDLVFN
# Key:
# Assay in all cases: glycan array binding signal (z-score within array); higher = stronger binding
# Settings in all cases: glycan notation: IUPAC condensed, linker removed
# [1] = target: GlcNAc(b1-3)Gal(b1-3)GalNAc
# Method in brief: (§1)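 Glycan array data were curated from 3228 arrays in the Consortium for Functional Glycomics database and kept only where the protein sequence was available. Glycan names were converted to IUPAC-condensed notation, and columns mapping to the same glycan were averaged. The binding signal is a within-array Z-score, averaged across arrays of the same protein sequence at different concentrations or buffers and across linkers. Negative Z-scores can be read as non-binding.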
# GlcNAc(b1-3)Gal(b1-4)Glc = target: GlcNAc(b1-3)Gal(b1-4)Glc
# Method in brief: as §1
# [2] = target: GlcNAc(b1-3)Gal(b1-4)GlcNAc
# Method in brief: as §1
# [3] = target: GlcNAc(b1-3)Gal(b1-4)GlcNAc(b1-3)Gal(b1-4)GlcNAc
# Method in brief: as §1
# GlcNAc(b1-3)GalNAc = target: GlcNAc(b1-3)GalNAc
# Method in brief: as §1
# GlcNAc(b1-3)Man = target: GlcNAc(b1-3)Man
# Method in brief: as §1
# [4] = target: GlcNAc(b1-3)[GlcNAc(b1-4)][GlcNAc(b1-6)]GlcNAc
# Method in brief: as §1
# [5] = target: GlcNAc(b1-3)[GlcNAc(b1-6)]Gal(b1-4)GlcNAc
# Method in brief: as §1
# [6] = target: GlcNAc(b1-3)[GlcNAc(b1-6)]GalNAc
# Method in brief: as §1
# [7] = target: GlcNAc(b1-4)Gal(b1-4)GlcNAc
# Method in brief: as §1
# GlcNAc(b1-4)GlcNAc = target: GlcNAc(b1-4)GlcNAc
# Method in brief: as §1
# [8] = target: GlcNAc(b1-4)GlcNAc(b1-4)GlcNAc
# Method in brief: as §1
# [9] = target: GlcNAc(b1-4)GlcNAc(b1-4)GlcNAc(b1-4)GlcNAc(b1-4)GlcNAc
# Method in brief: as §1
# [10] = target: GlcNAc(b1-4)GlcNAc(b1-4)GlcNAc(b1-4)GlcNAc(b1-4)GlcNAc(b1-4)GlcNAc
# Method in brief: as §1
# [11] = target: GlcNAc(b1-4)[GlcNAc(b1-6)]GalNAc
# Method in brief: as §1
# [12] = target: GlcNAc(b1-6)Gal(b1-4)GlcNAc
# Method in brief: as §1
# GlcNAc(b1-6)GalNAc = target: GlcNAc(b1-6)GalNAc
# Method in brief: as §1
# GlcNAc3Prop(b1-4)GlcNAc = target: GlcNAc3Prop(b1-4)GlcNAc
# Method in brief: as §1
# Kdn(a2-3)Gal(b1-3)GlcNAc = target: Kdn(a2-3)Gal(b1-3)GlcNAc
# Method in brief: as §1
# Kdn(a2-3)Gal(b1-4)GlcNAc = target: Kdn(a2-3)Gal(b1-4)GlcNAc
# Method in brief: as §1
# [13] = target: Man(a1-2)Man(a1-2)Man(a1-3)Man
# Method in brief: as §1
# [14] = target: Man(a1-2)Man(a1-2)Man(a1-6)[Man(a1-3)]Man
# Method in brief: as §1
# Man(a1-2)Man(a1-3)Man = target: Man(a1-2)Man(a1-3)Man
# Method in brief: as §1
# [15] = target: Man(a1-2)Man(a1-3)[Man(a1-2)Man(a1-6)]Man
# Method in brief: as §1
# [16] = target: Man(a1-2)Man(a1-3)[Man(a1-2)Man(a1-6)]Man(a1-6)[Man(a1-2)Man(a1-2)Man(a1-3)]Man
# Method in brief: as §1
# [17] = target: Man(a1-2)Man(a1-3)[Man(a1-2)Man(a1-6)]Man(a1-6)[Man(a1-2)Man(a1-2)Man(a1-3)]Man(b1-4)GlcNAc(b1-4)GlcNAc
# Method in brief: as §1
# [18] = target: Man(a1-2)Man(a1-3)[Man(a1-2)Man(a1-6)]Man(a1-6)[Man(a1-3)[Man(a1-6)]Man(a1-6)]Man(b1-4)GlcNAc(b1-4)GlcNAc
# Method in brief: as §1
# [19] = target: Man(a1-2)Man(a1-3)[Man(a1-6)]Man(a1-6)[Man(a1-2)Man(a1-3)]Man(b1-4)GlcNAc(b1-4)GlcNAc
# Method in brief: as §1
# [20] = target: Man(a1-2)Man(a1-6)[Man(a1-3)]Man(a1-6)[Man(a1-2)Man(a1-2)Man(a1-3)]Man
# Method in brief: as §1
# [21] = target: Man(a1-2)Man(a1-6)[Man(a1-3)]Man(a1-6)[Man(a1-2)Man(a1-2)Man(a1-3)]Man(b1-4)GlcNAc(b1-4)GlcNAc
# Method in brief: as §1
# Man(a1-3)[Man(a1-6)]Man = target: Man(a1-3)[Man(a1-6)]Man
# Method in brief: as §1
# [22] = target: Man(a1-3)[Man(a1-6)]Man(a1-6)[Man(a1-2)Man(a1-3)]Man(b1-4)GlcNAc(b1-4)GlcNAc
# Method in brief: as §1
# [23] = target: Man(a1-3)[Man(a1-6)]Man(a1-6)[Man(a1-3)]Man
# Method in brief: as §1
# [24] = target: Man(a1-3)[Man(a1-6)]Man(a1-6)[Man(a1-3)]Man(b1-4)GlcNAc(b1-4)GlcNAc
# Method in brief: as §1
# [25] = target: Man(a1-3)[Man(a1-6)]Man(b1-4)GlcNAc(b1-4)GlcNAc
# Method in brief: as §1
# Man(a1-6)Man = target: Man(a1-6)Man
# Method in brief: as §1
# Man(b1-4)GlcNAc = target: Man(b1-4)GlcNAc
# Method in brief: as §1
# Neu5Ac(a2-3)Gal = target: Neu5Ac(a2-3)Gal
# Method in brief: as §1
# [26] = target: Neu5Ac(a2-3)Gal(b1-3)GalNAc
# Method in brief: as §1
# [27] = target: Neu5Ac(a2-3)Gal(b1-3)GalNAc(b1-3)Gal(a1-4)Gal(b1-4)Glc
# Method in brief: as §1
# [28] = target: Neu5Ac(a2-3)Gal(b1-3)GalNAc(b1-3)Gal(b1-4)GlcNAc
# Method in brief: as §1
# [29] = target: Neu5Ac(a2-3)Gal(b1-3)GalNAc(b1-4)[Neu5Ac(a2-3)]Gal(b1-4)Glc
# Method in brief: as §1
# [30] = target: Neu5Ac(a2-3)Gal(b1-3)GalNAc6S
# Method in brief: as §1
# [31] = target: Neu5Ac(a2-3)Gal(b1-3)GlcNAc
# Method in brief: as §1
# [32] = target: Neu5Ac(a2-3)Gal(b1-3)GlcNAc(b1-3)Gal(b1-3)GlcNAc
# Method in brief: as §1
binder,measurement,setting,value
B1,glycan array binding signal (z-score),[1],0.011
same,glycan array binding signal (z-score),GlcNAc(b1-3)Gal(b1-4)Glc,-0.161
same,glycan array binding signal (z-score),[2],-0.21
same,glycan array binding signal (z-score),[3],-0.144
same,glycan array binding signal (z-score),GlcNAc(b1-3)GalNAc,-0.039
same,glycan array binding signal (z-score),GlcNAc(b1-3)Man,-0.103
same,glycan array binding signal (z-score),[4],0.048
same,glycan array binding signal (z-score),[5],0.039
same,glycan array binding signal (z-score),[6],-0.084
same,glycan array binding signal (z-score),[7],-0.099
same,glycan array binding signal (z-score),GlcNAc(b1-4)GlcNAc,-0.149
same,glycan array binding signal (z-score),[8],-0.075
same,glycan array binding signal (z-score),[9],-0.323
same,glycan array binding signal (z-score),[10],-0.297
same,glycan array binding signal (z-score),[11],-0.146
same,glycan array binding signal (z-score),[12],0.009
same,glycan array binding signal (z-score),GlcNAc(b1-6)GalNAc,-0.348
same,glycan array binding signal (z-score),GlcNAc3Prop(b1-4)GlcNAc,0.314
same,glycan array binding signal (z-score),Kdn(a2-3)Gal(b1-3)GlcNAc,-0.178
same,glycan array binding signal (z-score),Kdn(a2-3)Gal(b1-4)GlcNAc,-0.282
same,glycan array binding signal (z-score),[13],1.35
same,glycan array binding signal (z-score),[14],0.239
same,glycan array binding signal (z-score),Man(a1-2)Man(a1-3)Man,0.061
same,glycan array binding signal (z-score),[15],-0.144
same,glycan array binding signal (z-score),[16],-0.124
same,glycan array binding signal (z-score),[17],-0.166
same,glycan array binding signal (z-score),[18],0.161
same,glycan array binding signal (z-score),[19],0.106
same,glycan array binding signal (z-score),[20],-0.185
same,glycan array binding signal (z-score),[21],-0.2
same,glycan array binding signal (z-score),Man(a1-3)[Man(a1-6)]Man,-0.037
same,glycan array binding signal (z-score),[22],-0.153
same,glycan array binding signal (z-score),[23],-0.153
same,glycan array binding signal (z-score),[24],0.196
same,glycan array binding signal (z-score),[25],-0.184
same,glycan array binding signal (z-score),Man(a1-6)Man,-0.16
same,glycan array binding signal (z-score),Man(b1-4)GlcNAc,-0.309
same,glycan array binding signal (z-score),Neu5Ac(a2-3)Gal,-0.241
same,glycan array binding signal (z-score),[26],-0.21
same,glycan array binding signal (z-score),[27],0.054
same,glycan array binding signal (z-score),[28],-0.124
same,glycan array binding signal (z-score),[29],-0.096
same,glycan array binding signal (z-score),[30],-0.237
same,glycan array binding signal (z-score),[31],-0.255
same,glycan array binding signal (z-score),[32],-0.262
